# In all, about 310,000 compounds went through this assay and about 14,000 (4.5%) showed an effect of 50% or more. Effects have a minus sign here. Some of the results follow.
# Target: human ether-à-go-go-related gene (hERG) potassium channel (human, UniProt Q12809)
# Experiment: primary screen, population patch clamp on CHO cells stably expressing hERG
# 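Note: peak tail current of the secondary pulse compared with the same well before compound.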
# Chain of human ether-à-go-go-related gene (hERG) potassium channel (Q12809 whole entry, looked up): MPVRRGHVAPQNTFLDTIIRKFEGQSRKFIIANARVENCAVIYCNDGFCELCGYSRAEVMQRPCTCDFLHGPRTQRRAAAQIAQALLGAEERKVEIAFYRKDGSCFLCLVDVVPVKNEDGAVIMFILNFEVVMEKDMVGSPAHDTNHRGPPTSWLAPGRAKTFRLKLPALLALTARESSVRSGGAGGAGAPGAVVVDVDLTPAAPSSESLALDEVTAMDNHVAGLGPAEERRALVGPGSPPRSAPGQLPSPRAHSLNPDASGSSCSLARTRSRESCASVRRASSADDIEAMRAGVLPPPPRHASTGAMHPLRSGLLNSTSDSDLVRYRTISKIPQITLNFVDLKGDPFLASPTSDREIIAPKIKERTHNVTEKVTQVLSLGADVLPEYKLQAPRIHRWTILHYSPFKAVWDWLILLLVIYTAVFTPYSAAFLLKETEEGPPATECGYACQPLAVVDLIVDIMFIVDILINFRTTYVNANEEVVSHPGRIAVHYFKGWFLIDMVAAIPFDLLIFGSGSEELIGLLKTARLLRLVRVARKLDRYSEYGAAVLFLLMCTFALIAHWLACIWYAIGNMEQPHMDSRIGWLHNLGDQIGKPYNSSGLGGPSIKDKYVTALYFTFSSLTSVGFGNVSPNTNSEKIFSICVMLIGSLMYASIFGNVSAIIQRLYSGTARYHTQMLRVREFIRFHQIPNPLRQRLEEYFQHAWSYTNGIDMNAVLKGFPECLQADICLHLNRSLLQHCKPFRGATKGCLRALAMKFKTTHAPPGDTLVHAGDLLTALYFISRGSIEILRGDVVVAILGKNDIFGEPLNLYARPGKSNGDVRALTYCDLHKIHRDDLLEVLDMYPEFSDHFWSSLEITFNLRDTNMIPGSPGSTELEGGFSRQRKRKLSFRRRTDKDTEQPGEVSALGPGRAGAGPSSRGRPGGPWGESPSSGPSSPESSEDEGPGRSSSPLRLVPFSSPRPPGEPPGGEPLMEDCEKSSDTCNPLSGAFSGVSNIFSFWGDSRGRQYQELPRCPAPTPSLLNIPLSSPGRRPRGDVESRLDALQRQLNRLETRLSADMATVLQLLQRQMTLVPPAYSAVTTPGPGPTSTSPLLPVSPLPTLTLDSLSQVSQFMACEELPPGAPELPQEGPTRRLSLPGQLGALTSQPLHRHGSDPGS
row,Structure (SMILES),"hERG current change (%, negative = inhibition) at 10uM [%]"
1,Nc1ccn(Cc2ccccc2)n1,-19.4
2,CC12CCC(C(=O)NNc3ccc([N+](=O)[O-])cc3)(CC1=O)C2(C)C (stereo not shown),0.48
3,Cc1ccnc2nc(C(=O)OCC(=O)N(CC(C)C)CC(C)C)nn12,15.5
4,COc1cc(NC(=O)C2CCN(S(=O)(=O)c3ccc4c(c3)CC(C)N4C(C)=O)CC2)cc(OC)c1OC (stereo not shown),4.47
5,CCSc1ccccc1C(=O)Nc1cc(OC)c(OC)c(OC)c1,-2.86
6,COc1cc(/C=N/NC(=O)CNC(=O)c2ccco2)ccc1O,7.95
7,Cc1ccc(CN2C(=O)CCC2C(=O)N2CCN(c3ccc(F)cc3)CC2)cc1 (stereo not shown),-28.1
8,CN(Cc1ccccc1)c1ccc(N2C(=O)CCC2=O)cc1[N+](=O)[O-],-5.55
9,C/C(=N/NC(=O)c1ccc(Cl)cc1Cl)c1cccnc1,16.4
10,CO/N=C/c1ccc(N2CCN(C(=O)c3ccc(Cl)cc3Cl)CC2)c([N+](=O)[O-])c1,-53.1
11,Cc1cc(/C=N/NC(=O)c2ccc(O)cc2)c(C)n1CC(C)C,-9.91
12,Nc1nc2ccc(N3CCOCC3)cc2s1,-9.29
13,CCOP(=O)(/C=C(\Cl)c1ccccc1)C(O)c1ccc(F)cc1 (stereo not shown),6.68
14,COc1cccc(/C=C/C(=O)Nc2ccc3[nH]c(=O)[nH]c3c2)c1,7.9
15,CC1(NC(=S)NCCCCCCNC(=S)NC2(C)CCS(=O)(=O)C2)CCS(=O)(=O)C1 (stereo not shown),17.1
16,CCOCCCNC(=O)C1(O)c2ccccc2NC(=O)N1c1ccc(Cl)cc1 (stereo not shown),11.8
17,COc1cc(/C=C2\SC(=S)N(C(Cc3ccccc3)C(=O)O)C2=O)ccc1O (stereo not shown),8.15
18,CN1CCN(C(=O)c2cc3ccccc3cc2O)CC1,3.98
19,CC(C)(C)CC(C)(C)Nc1c(-c2ccc(O)cc2)nc2cnccn12,3.97
20,CCOc1ccc(C(=O)OC(C)CN2CCCCC2)cc1.Cl (stereo not shown),-29
21,C=CCNc1nc(N)c(C(=C(C#N)C#N)c2ccccc2)s1,12.4
22,COc1ccc(S(=O)(=O)N2CCc3ccccc32)cc1OC,-9.6

row,Structure (SMILES),"hERG current change (%, negative = inhibition) at 10uM [%]"
1,Cc1nn(CC(=O)N2c3ccccc3NC(=O)C2(C)C)c(C)c1[N+](=O)[O-],6
2,NC(=O)c1oc2ccccc2c1NC(=O)CCc1ccccc1,-3.11
3,Cc1cc(C)c(-c2c(O)c3cnn(-c4ccccc4)c3[nH]c2=O)c(C)c1,8.37
4,COc1cc2[nH]cc(C(=O)NCc3cccs3)c(=O)c2cc1OC,1.86
5,CC(=O)N(C)c1ccc(NCc2cc(=O)oc3cc(C)c(O)cc23)cc1,-6.24
6,Nc1nc(C2CCCN2S(=O)(=O)c2ccc(Cl)cc2)cs1 (stereo not shown),-3.42
7,O=C(O)c1c[nH]c2c(C(F)(F)F)cccc2c1=O,-1.62
8,O=C(NCc1ccco1)C1CCN(C(=O)c2ccc(Cl)cc2Cl)CC1,-0.217
9,O=C(Nc1ccc(Cl)cc1)N(Cc1cccnc1)Cc1ccco1,-63.9
10,Cc1cc(C)cc(N2C(=O)CC(N(C(=O)c3ccco3)c3cc(C)cc(C)c3)C2=O)c1 (stereo not shown),12.8
11,Cc1ccc(C(=O)Nn2cnnc2)c(Cl)c1,20
12,O=[N+]([O-])c1ncccc1OCc1ccccc1Br,8.6
13,CCOc1ccc(Nc2nc(N)nc(CN3CCN(c4ccccc4F)CC3)n2)cc1,-80.8
14,CC1CCCC(NC(=O)COC(=O)c2cccs2)C1C (stereo not shown),-1.8
15,Cc1onc(-c2ccccc2Cl)c1C(=O)Nc1ccc(-n2nncc2C(C)(C)C)cc1,4.1
16,CCCC(C(=O)NC1CCCC1)N(Cc1ccccc1Cl)C(=O)c1snc(C(N)=O)c1N (stereo not shown),12
17,O=C(N/N=C/c1c(O)n(Cc2ccc(F)cc2)c(=O)[nH]c1=O)c1ccccc1,-3.17
18,CCc1c(C(=O)Nc2cc(C(=O)OC)ccc2C)csc1C,8.22
19,Cc1nn(C)cc1CN(C)C(=O)c1ccc(OC2CCN(Cc3ccccn3)CC2)cc1,8.65
20,O=C(N/N=C/c1ccco1)c1cc(-c2ccccc2)n[nH]1,-12.6
21,Cc1ccc(N(CC(=O)NCc2ccccc2Cl)S(=O)(=O)c2c(C)noc2C)cc1,22.4
22,O=C(Nc1ccc(N2CCOCC2)cc1)C1CCN(C(=O)OCc2ccccc2)CC1,15.2

row,Structure (SMILES),"hERG current change (%, negative = inhibition) at 10uM [%]"
1,Cc1sc2ncn(CC(=O)NCC(=O)N(C)C3CCCCC3)c(=O)c2c1C,-18.2
2,CC(C)CNC(=O)c1ccccc1NC(=O)CCSc1ccccc1,-17.6
3,O=C(Oc1ccc(N(Cc2cccs2)C2=NS(=O)(=O)c3ccccc32)cc1)c1ccccc1,-8.58
4,CC1Cc2ccccc2N1CC(=O)Nc1ccc(Cl)c(S(=O)(=O)N(C)C)c1 (stereo not shown),-1.59
5,CCN(CC)CCCNC(=O)c1cn(C)c(=O)c2c1c1ccccc1n2C,10.1
6,COc1ccc(OC)c(-c2csc(NC(=O)COC(=O)c3ccc(NC(=O)CC#N)cc3)n2)c1,14.5
7,CCCCOc1ncnc2c1[nH]c1ccc(OC)cc12,15
8,CC(=O)C(=[N+]=[N-])C(=O)NCc1ccccc1,11.3
9,O=C(O)CSc1nnc(-c2ccccc2Br)n1-c1cccc(C(F)(F)F)c1,15.6
10,COc1cc(S(=O)(=O)N2CCN3CCCC3C2)ccc1-n1cnnn1 (stereo not shown),2.05
11,Cc1ccc(CSCCNC(=O)CN2C(=O)c3ccccc3S2(=O)=O)cc1,2.49
12,CC(C)c1[nH]nc2c1C1(CCN(Cc3ccccc3)CC1)C(C#N)=C(N)O2,-25.5
13,CN(C(=O)COC(=O)c1ccccc1NC(=O)c1ccco1)C1CCS(=O)(=O)C1 (stereo not shown),-62.3
14,O=C(C1CCN(c2nnc(-n3cccc3)s2)CC1)N1CCCCC1,-6.55
15,CCOCCCNS(=O)(=O)c1ccc(NC(=O)Cc2c(F)cccc2Cl)cc1,3.38
16,CCNC(=S)N1CCn2cccc2C1c1cccnc1 (stereo not shown),-17.1
17,CC(=O)OC1N=C(c2ccc(Cl)cc2)c2cc(Br)ccc2NC1=O (stereo not shown),-55
18,Cc1c(NC(=O)c2ccc(N3CCCC3)c([N+](=O)[O-])c2)cccc1-c1nc2ccccc2s1,6.37
19,Cc1nn(-c2ccccc2)c(=O)c2ccccc12,25.3
20,CCn1ccnc1CN1CCc2c([nH]c3ccccc23)C1C1CCCCC1 (stereo not shown),-19.4
21,CCO[C@H]1OC(C(=O)N2CCN(C)CC2)=C[C@@H](C2CC2)[C@@H]1CCCO,15.4
22,CC(NC(=O)C(=O)N/N=C/c1ccccc1)c1ccccc1 (stereo not shown),25.8

row,Structure (SMILES),"hERG current change (%, negative = inhibition) at 10uM [%]"
1,COc1cccc(CN=CC2=C(O)CC(C)(C)CC2=O)c1OC,2.05
2,Cc1ccc(S(=O)(=O)Nc2cccc3cccnc23)c([N+](=O)[O-])c1,8.38
3,O=C(Nc1csnn1)c1csnn1,26.4
4,Cc1ccc(C(=O)NNC(=O)c2ccc(SCC3CCCO3)c([N+](=O)[O-])c2)cc1 (stereo not shown),-5.06
5,CCC(C)NC(=O)C1c2cc(OC)c(OC)cc2C(=O)N(C)C1c1ccc(OC)cc1 (stereo not shown),-6.17
6,CC(NC(=O)COC(=O)c1ccc2c(c1)OCO2)c1ccccc1 (stereo not shown),6.03
7,Cc1ccc(C)c(SCC(=O)OCC(=O)NCc2ccccc2)c1,18.4
8,Cc1ccc(Cl)cc1NC(=O)C1CCCN(c2cnccn2)C1 (stereo not shown),-23.1
9,CCN(CC)S(=O)(=O)c1ccc(Cl)c(NC(=O)COC(=O)c2ccc(O)cc2)c1,-21.4
10,Cc1ccc(NS(=O)(=O)c2csc(C(N)=O)c2)c(C)c1,32.1
11,COc1ccc(C(=O)NCC(=O)N/N=C/C=C/c2ccccc2)cc1OC,-93.6
12,O=C(c1ccncc1)N(c1ccc2oc3c(c2c1)CCCC3)S(=O)(=O)c1cccc([N+](=O)[O-])c1,3.25
13,O=C(COC(=O)Cc1c(F)cccc1Cl)NC(=O)c1ccccc1,15.3
14,C=CCn1c(SCC(=O)O)nnc1-c1ccccc1,-3.24
15,CC1=C2[C@H]3OC(=O)[C@@H](C)[C@@H]3CC[C@@]2(C)C=CC1=O,9.85
16,Cc1ccc(Cl)cc1N1CCN(C(=O)CCS(=O)(=O)c2cccc3nonc23)CC1,-21.5
17,O=S1(=O)N(Cc2ccc(F)cc2)CCCN1Cc1ccccc1Cl,10.6
18,N#CC1=C(N)Oc2n[nH]c(-c3cccs3)c2C1c1ccsc1 (stereo not shown),11
19,Cc1ccc2cc(CNC(C)C)c(=O)[nH]c2c1,-9.38
20,CCOc1ccc(NC(=O)C(C)Oc2ccccc2C(=O)Nc2cccc(Cl)c2Cl)cc1 (stereo not shown),10.8
21,Br.O=c1cc2c(n[nH]1)CCCC2,3.1
22,CCN(C(=O)[C@@H]1CCCN1C(=O)c1cccs1)c1nc2cc(Cl)ccc2s1,-36

# Reference: paper PMC4336329 (PLoS ONE, 2015)
